Results published in patent US20230416329A1, “A PEPTIDE WITH DISULFIDE BONDS AND INHIBITORY ACTIVITY AGAINST SERINE PROTEASES, DERIVED HYBRID PEPTIDES THEREOF, AND USES THEREOF” (INSTITUTE OF MATERIA MEDICA , CHINESE ACADEMY OF MEDICAL …, priority 2020, published 2023).
Like-named read-outs stand apart in the source and are kept apart here. Part of at least one peptide drawing is inferred or uncertain, most often the ends. Bridge positions count the residues as written; N and C are the ends. Square brackets hold non-standard residues; d marks the D form. Peptide text beside a SMILES is read from it. Abu = CC[C@H](N)C(=O)O

Experiments:
[1] = system: mouse ear swelling; assay: Croton oil mouse ear swelling, IL-17A inhibitory peptide administered via duodenum; type: in vivo; settings: for inhibition of mouse ear swelling via duodenal administration (in words): 300 mg/kg duodenal, compared with model control group; for Swelling (%) / Swelling inhibitory (%): via duodenum, peptides 300 mg/kg, dexamethasone 1 mg/mL, 10 mL/kg; for Swelling (%): 4 hours after croton oil; for Swelling inhibitory (%): vs model control
Protocol: Enteric coating technology can be used to achieve oral administration of targeted small intestine drugs. Considering factors such as gastric emptying and physical barriers in the stomach, in order to accurately detect the feasibility of direct intestinal administration of targeted IL-17A inhibitory peptide, duodenal administration is designed. Eight mice in each group are subjected to surgical exposure of the duodenum under ether anesthesia, and the drug is injected according to different grouping schemes.
The model control group (Con) is given PEG400 (50%, w/v)/physiological saline. The administration group was given different polypeptide samples (300 mg/kg), while the positive control group was given dexamethasone (1 mg/mL, 10 mL/kg), and then the muscular layer and cortex were sutured. Ear swelling model was established 6 minutes after suture. All mice in each group were coated with 10 μL croton oil on both sides of the right ear. After 4 hours of inflammation, the mice in each group were killed for cervical dislocation. After that, ear pieces were punched in the symmetrical parts of the left and right ears with a hole punch and weighed. Their mass was recorded. The swelling degree and swelling rate were calculated:
(§1) Swelling rate=((right ear mass−left ear mass)/left ear mass)*100%

[2] = system: mouse ear swelling; assay: Croton oil mouse ear swelling, IL-17A inhibitory peptide administered subcutaneously; type: in vivo; settings: for inhibition of ear swelling induced by croton oil, subcutaneous (in words): 30 mg/kg s.c., Kunming male mice; for Swelling (%) / Swelling inhibitory (%): subcutaneous, peptides 30 mg/kg, Secukinumab 5 mg/kg; for Swelling (%): 4 hours after croton oil; for Swelling inhibitory (%): vs model control
Protocol: IL-17A is an inflammatory factor in many chronic inflammatory reactions. In order to quickly evaluate and analyze its anti-inflammatory effects, a mouse ear swelling model was first used for preliminary screening of anti-inflammatory activities. The experimental process is as follows. Kunming male mice (18-20 g, n=10) were labeled with picric acid. All mice in each group were coated with 10 μL croton oil on both sides of the right ear. Immediately after modeling, the positive drugs Secukinumab group (5 mg/kg), inhibitory peptides 17A, 17A-BT, 17A-CH, and 17A-EC (30 mg/kg) were subcutaneously injected. The model control group (Con) was injected with a corresponding volume of physiological saline. After causing inflammation for 4 hours, the mice in each group were killed for cervical dislocation, and then the ear pieces were punched in the symmetrical parts of the left and right ears with a hole punch. The weight was weighed and recorded. The swelling degree and swelling rate were calculated:
as §1

[3] = target: T1, bovine trypsin (Bos taurus, UniProt P00760); assay: Trypsin inhibitory activity of peptides (BApNA hydrolysis, OD405; IC50, Ki, residual activity); type: biochemical
T1 sequence (P00760 24-246): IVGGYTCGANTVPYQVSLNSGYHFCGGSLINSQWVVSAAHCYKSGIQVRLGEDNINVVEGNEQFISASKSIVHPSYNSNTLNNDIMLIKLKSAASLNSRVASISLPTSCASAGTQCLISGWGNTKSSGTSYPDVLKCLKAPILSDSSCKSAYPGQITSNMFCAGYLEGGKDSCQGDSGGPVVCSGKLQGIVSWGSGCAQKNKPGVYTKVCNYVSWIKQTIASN
Protocol: The substrates N-succinyl-Ala-Ala-Pro-Phe-p-nitroaniline (AAPFpNA), Nα—Benzoyl-L-arginine-4-nitroaniline hydrochloride (BApNA) and N-succinyl-[…] (AAApNA) are used in competitive binding reaction to determine the inhibitory activities against α-chymotrypsin, bovine trypsin, and porcine pancreatic elastase, respectively. Experiments for α-chymotrypsin and bovine trypsin inhibition were measured in 20 mM CaCl2, 50 mM Tris-HCl buffer (pH 7.8), and that for porcine elastase inhibition was measured in 50 mM Tris-HCl buffer (pH 8.0). The concentration of the peptide was measured using optical density (OD) at 280 nm. The Michaelis constant (Km) of the enzyme hydrolysis substrate is calculated from the initial rate of substrate hydrolysis at 405 nm. The absorbance value of the substrate was measured at 405 nm after complete hydrolysis. All data were processed using nonlinear regression.
• (1) Added 200 μL of reaction buffer (20 mM CaCl2 and 50 mM Tris-HCl, pH 7.8) into the 96-well plate, and preheated at 37° C. for 15 min. Then added 5 μL of different concentrations of substrates (p-Nitroanilide, pNA, 0.5% in DMSO), and mixed by centrifugation at 500 rpm for 1 min. […] The experiment was performed in triplicate. The standard curve was obtained by plotting the OD405 nm value with pNA concentration. • (2) Added 190 μL of reaction buffer (20 mM CaCl2 and 50 mM Tris-HCl, pH 7.8) and 10 μL of 1 μM trypsin into the 96-well plate, and preheated at 37° C. for 15 min. Then added 5 μL of different concentrations of substrates (BApNA, 0.5% in DMSO) and mixed by centrifugation at 500 rpm for 1 min. […] The experiment was performed in triplicate. The corresponding curve was obtained by plotting the OD405 nm value with time. Divided the slope of the curve by the slope of the standard curve and the enzyme concentration to obtain the initial velocity V0 (mM/(min*mM protein). Plotted the initial velocity V0 with the concentration of substrate BApNA using Prism software, and the Michaelis constant Km value of trypsin hydrolyzing BApNA was obtained.
• (1) Added a total 190 μL of reaction buffer (20 mM CaCl2 and 50 mM Tris-HCl, pH 7.8) along with different concentrations of anti-trypsin peptides (BTs) into the pre-cooled 96-well plate, followed by preheating at 37° C., and spined down at 500 rpm for 5 min. Next added 10 μL of 1 μM trypsin, incubated at 37° C., and then spined down at 500 rpm for 10 min. Finally, added 5 μL of 50 mM BApNA, and mixed by centrifugation at 500 rpm for 1 min. The plate was incubated at 37° C. for 260 min, and the absorbance value at 405 nm was measured. The experiment was performed in triplicate. The blank control only contained the reaction buffer and the substrate as the minimum absorption value (Min OD405 nm). The negative control only contained the reaction buffer, the enzyme and the substrate as the maximum absorption value (Max OD405 nm). • (2) In the reaction system of 205 μL, the final concentrations of trypsin and BApNA were 50 nM and 1.22 mM, respectively. • (3) Data statistics
Residual activity of the enzyme (%)=(1−(Max OD405 nm−Sample OD405 nm)/(Max OD405 nm−Min OD405 nm))*100
Plotted the residual activity of the enzyme with […] to obtain the half inhibitory concentration (IC50) of BTs scaffold against trypsin. […]

| Compound | inhibition of mouse ear swelling via duodenal administration (in words) [1] | inhibition of mouse ear swelling via duodenal administration (in words) ([1]; listed as SEQ ID NO: 239) | Swelling (%) [1] [%] | Swelling inhibitory (%) [1] [%] | inhibition of ear swelling induced by croton oil, subcutaneous (in words) [2] | Swelling (%) [2] [%] | Swelling inhibitory (%) [2] [%] | inhibition of mouse ear swelling via duodenal administration (in words) ([1]; listed as SEQ ID NO: 240) | inhibitory activity against trypsin (in words) [3] | Ki ([3]; Ki=IC50/(1+S/Km), Km 0.33 mM) [µM] | inhibitory activity against trypsin (in words) ([3]; listed as SEQ ID NO: 35) | IC50 ([3]; trypsin 50 nM, BApNA 1.22 mM) [µM] |
| --- | --- | --- | --- | --- | --- | --- | --- | --- | --- | --- | --- | --- |
| CC[C@H](C)[C@H](N)C(=O)N[C@@H](Cc1c[nH]cn1)C(=O)N[C@H](C(=O)N[C@H](C(=O)N[C@H](C(=O)N1CCC[C@H]1C(=O)N[C@@H](C)C(=O)N[C@@H](CC(=O)O)C(=O)N[C@@H](CC(C)C)C(=O)N[C@@H](Cc1c[nH]c2ccccc12)C(=O)N[C@@H](CC(=O)O)C(=O)N[C@@H](Cc1c[nH]c2ccccc12)C(=O)N[C@H](C(=O)N[C@@H](CC(N)=O)C(=O)NCC(=O)N[C@H]1CSSC[C@@H](C(=O)N[C@@H](Cc2ccccc2)C(=O)O)NC(=O)[C@H]([C@@H](C)CC)NC(=O)[C@@H]2CCCN2C(=O)[C@@H]2CCCN2C(=O)[C@H]([C@@H](C)CC)NC(=O)[C@H](CO)NC(=O)[C@H](CCCCN)NC(=O)[C@H]([C@@H](C)O)NC(=O)[C@H](C)NC(=O)[C@H](CCCNC(=N)N)NC(=O)CNC1=O)[C@@H](C)CC)[C@@H](C)CC)[C@@H](C)O)C(C)C [17A-BT] (H-IHVTIPADLWDWINGCGRATKSIPPICF-OH; disulfide 16-27) | statistically significant | had anti-inflammatory activities | 53.83 ± 14.17 | 44.01 | significantly inhibit the inflammatory response to ear swelling | 74.70 ± 32.96 | 35.49 |  |  |  |  |  |
| CC[C@H](C)[C@H](N)C(=O)N[C@@H](Cc1c[nH]cn1)C(=O)N[C@H](C(=O)N[C@H](C(=O)N[C@H](C(=O)N1CCC[C@H]1C(=O)N[C@@H](C)C(=O)N[C@@H](CC(=O)O)C(=O)N[C@@H](CC(C)C)C(=O)N[C@@H](Cc1c[nH]c2ccccc12)C(=O)N[C@@H](CC(=O)O)C(=O)N[C@@H](Cc1c[nH]c2ccccc12)C(=O)N[C@H](C(=O)N[C@@H](CC(N)=O)C(=O)NCC(=O)N[C@@H](Cc1ccccc1)C(=O)N[C@H]1CSSC[C@@H](C(=O)N[C@@H](Cc2ccc(O)cc2)C(=O)NCC(=O)O)NC(=O)[C@H](CCC(N)=O)NC(=O)[C@@H]2CCCN2C(=O)[C@@H]2CCCN2C(=O)[C@H]([C@@H](C)CC)NC(=O)[C@H](CO)NC(=O)[C@H](Cc2ccc(O)cc2)NC(=O)[C@H]([C@@H](C)O)NC1=O)[C@@H](C)CC)[C@@H](C)CC)[C@@H](C)O)C(C)C [17A-CH] (H-IHVTIPADLWDWINGFCTYSIPPQCYG-OH; disulfide 17-25) | statistically significant |  | 68.93 ± 16.03 | 25.31 | significantly inhibit the inflammatory response to ear swelling | 82.48 ± 19.04 | 28.77 | had anti-inflammatory activities |  |  |  |  |
| CC[C@@H]1NC(=O)[C@H](CCCNC(=N)N)NC(=O)CNC(=O)[C@@H](N)CSSC[C@@H](C(=O)N[C@@H](Cc2ccccc2)C(=O)O)NC(=O)[C@H]([C@@H](C)CC)NC(=O)[C@@H]2CCCN2C(=O)[C@@H]2CCCN2C(=O)[C@H]([C@@H](C)CC)NC(=O)[C@H](CO)NC(=O)[C@H](CCCCN)NC(=O)[C@H]([C@@H](C)O)NC1=O [BT35] (H-CGR[Abu]TKSIPPICF-OH; disulfide 1-12; C-terminus assumed) |  |  |  |  |  |  |  |  | almost equivalent inhibitory activity of peptide BT9 | 0.01 | excellent trypsin inhibitory activities | 0.06 |
| CC[C@H](C)[C@@H]1NC(=O)[C@H](CCCCN)NC(=O)[C@@H]2CCCN2C(=O)[C@@H](NC(=O)[C@H](CCCNC(=N)N)NC(=O)CN)CSSC[C@@H](C(=O)N[C@@H](Cc2ccccc2)C(=O)O)NC(=O)[C@H](CCCNC(=N)N)NC(=O)[C@H](CCC(N)=O)NC(=O)[C@H](CC(C)C)NC1=O [BT43] (H-GRCPKILQRCF-OH; disulfide 3-10) |  |  |  |  |  |  |  |  | weak |  |  |  |
